# Reference: the supplement of paper PMC11417369
# This is one part of the list.
# Tested on: PfAP2-HC AP2 domain (GST-tagged)
# Assay: gcPBM binding intensity (ln(normalized median fluorescence intensity)); higher = stronger DNA binding
# Procedure, shortened: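 DNA-binding domains from P. falciparum, fused to GST and produced in E. coli, were put on an Agilent 4 × 180k double-stranded probe array for 1 h in 1× PBS holding 1% milk, 0.2 mg/ml BSA, 0.5% salmon testes DNA and 0.03% Triton X-100. Probes were primer-extended, 36 bp long and drawn from intergenic genomic regions, with negative controls included. After Alexa488 anti-GST antibody detection and a 488 nm scan, binding intensity was set as the highest Masliner-normalised natural-log median intensity across replicate spots of either probe orientation.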
row,Sequence,gcPBM binding intensity (ln)
1,ACATCTATGTATAATACACACACTAATATATAATTG [CACACA_site5134],9.98
2,ACATATTATTCTTCTTGTACACATAAATTTTATAAA [XGTACX_site299],9.63
3,ATGACGTAGTGGTGTACACACATGGTACCTTTATTC [CACACA_site1547],10.1
4,AAAAAAATATTCAAAGCATGCCTATTTACACATATT [TGCATGCA_site806],9.77
5,TCTTATAATTTACCTACACACAGGAAATATATAAAT [CACACA_site294],9.65
6,TCAGAAATATTACAAAGTACATGCAACGAAAATTTC [XGTACX_site5061],9.62
7,ACACAATGTAGTGTATAAATACAATAAAAGGTTGTA [TGCATGCA_negctrl_site251],10.3
8,TGATATTTAAATTTTGCACACGCATATGAAATTAGG [CACACA_site1034],9.61
9,ATATTTATAATTTTTTGTACACATTTTTTAAAGATA [XGTACX_site1784],9.62
10,TATAAGAGAAGAAGAAAAAAAAGGTTTCTATAGAAA [XGTACX_negctrl_site421],9.68
11,CATATAGTAATATATACACACACTTGTCTTGTAAAA [CACACA_site8238],10
12,AAGAAGCATAAATGTACACACATATTTATATATTAA [CACACA_site1332],9.85
13,ATAGTATACAGACACACACACACACGGATATAAATA [CACACA_site6914],10.6
14,ATATATATATATATATGTACTAAATATTCATCCTTA [XGTACX_site6039],9.75
15,AAGTTTAAGAAATAATTCATATTTACTTCCATCCTC [GTGCAC_negctrl_site494],9.57
16,TTTTTTTTTTTTTTTGCACACACATTGAATTATTAT [CACACA_site198],9.96
17,TACATATAAATATATAAATATAAATAAATAAATAAA [XGTACX_negctrl_site180],9.7
18,AAATGGAAAAGGTGTACACAAAAAAAAGGGAAAAGC [CACACA_site5331],10.1
19,CTTTATATATAGTGTACACATTAAACAAATCTCAAT [CACACA_site5845],9.58

row,Sequence,gcPBM binding intensity (ln)
1,TTACCAAAAACCTCAAGTACAAAAAATCCCTAATAT [XGTACX_site2313],9.65
2,TATATATGTATATATGGTACAGAATATTCTACATTA [XGTACX_site5077],9.65
3,CATCCACATATATGTACACACATATATATATATATA [CACACA_site2964],9.95
4,TACCACATCGGTAAATGTACTTATAAAAAAAAAAAA [XGTACX_site3364],9.13
5,CAATCATTTTATTGTTGTACAGTAATTATGAATTCA [XGTACX_site7508],9.37
6,ATTTATGATATGTAAACATGCATAAAAATTTCAAAA [TGCATGCA_site858],9.6
7,AATGGGTTAGCACATACACACCAATATATTATATAT [CACACA_site9011],9.87
8,TATAAACTTAATTTGAGTACTTAATAATAATTTTGT [XGTACX_site3730],9.49
9,TATATATATATATTATGTACGTATCAGTTTGTATGT [XGTACX_site695],9.92
10,CACGACATTAACAATACATGCAGAAAAACAAAAAAT [TGCATGCA_site689],9.7
11,TTATAAATTAGAGGTACACACAAAAAAAAAAAGAAA [CACACA_site6740],9.94
12,ATTTTTAATATTATTACACACACTAAAAAAAAAAAA [CACACA_site1067],9.79
13,TTGGTACCTATAGATACACACATATATACATATATA [CACACA_site3402],9.69
14,AAAAAAAAAACACGCGCACACACACCCACCCACCCA [CACACA_site8689],10.9
15,ACTAATAAAGGTGTAATACACACTATAAAAAGGAAT [CACACA_site1124],10
16,TATAAAATTTTTAAAAGTACATATTTTACATAATAC [XGTACX_site2193],9.16
17,TTTTTATCAACAAATAATACCATAACTCATATTTAT [CACACA_negctrl_site740],9.41
18,ATTATTCCATATTATTGTACTTTAATTTTTTAAACC [XGTACX_site2960],9.65
19,TTTTTTCTTTATTATGGTACGTATAAAAAAATTATA [XGTACX_site3433],9.49

row,Sequence,gcPBM binding intensity (ln)
1,GAGAGGTATCAAAAATGTACACATATATATATGTAT [XGTACX_site5611],9.7
2,ATATATAATATATATTGTACAGGTATGTCTATAAAT [XGTACX_site2243],9.75
3,ATATATTTTTTTTTTTCACACATTAGGATTCATATA [CACACA_site5758],9.64
4,TAATAATATATAAAAAGTACATAACAAGATATGAAA [XGTACX_site4921],9.84
5,ATCATATGTATGGTGGTGCATTATGCATGAATTTTA [GTGCAC_site9798],9.73
6,AGAAAAAAATAATCATCACACACGGAGAATGTCCAA [CACACA_site2314],10.1
7,GAAAATAACTAAAATTGTACAAAGAAACATATATTT [XGTACX_site6484],9.79
8,TATATATATCTGTATACACACATACAAATATGTAAA [CACACA_site5950],9.73
9,GATATTCATTATATATGTACATATATGTAATATATA [XGTACX_site2210],9.67
10,TATTAAAGCACCCATGCACACACACTAAGGAAAAGA [CACACA_site7961],10.8
11,TGTTGATTTATCCTGTGTACGGATATATATCTTTCA [XGTACX_site7826],9.66
12,TAAAGAATATTATAAACACACACTTTATAAAGAATT [CACACA_site114],9.91
13,GTAATTATACATATTACACACTCTCTTGATCTTTTT [CACACA_site7756],9.87
14,TATATAAAGAAACACACACACACCTTATAATTATTA [CACACA_site4062],11.2
15,TATATAAACCCACCTACACACACAACGTAAATGCAT [CACACA_site8702],10.1
16,ATTATTATATTCAAATGTACTTAATAAACATTTTAA [XGTACX_site3023],9.38
17,TTTATCTAAATATGTGTGCACTCGTTAATTTTTTTT,10.1
18,TGAATAAAATATTATACACACATATGTATATAACAT [CACACA_site974],9.75
19,TTAATTTTTTTTTAAACACACATTTTTTTATTTAAG [CACACA_site2738],9.67
